Out of some 300,000 compounds screened, about 22,000 (7.3%) were called active. Inconclusive means that the source gave no clear call. Such entries were picked first, then a sample of the others. No stated cut-off is given here; in the data, active means activity score below about -60%; inconclusive means mostly about -28% to -61%; inactive means positive scores.
Assay: Activators via SNCA 5'UTR binding, MLPCN (AID 1814)
Settings: alpha-synuclein 5'UTR reporter, activators screen; hits give low values; tested at 7.5 µM

Structure (SMILES)	activity score
CCCc1nc2ccc(NC(C)=O)cc2c(=O)n1Cc1cccc(Cl)c1	inconclusive: -58%
O=c1cc(Nc2ccc3c(c2)OCCO3)[nH]c(=O)n1Cc1ccc(F)cc1	inconclusive: -36.4%
O=C(Nc1ccc(-c2cn3ccsc3n2)cc1)C1COc2ccccc2O1 (centres undefined)	inconclusive: -58.8%
O=C(O)[C@@H]1CCCC[C@@H]1C(=O)N1CCc2ccccc2C1CN1C(=O)c2ccccc2C1=O (some centres undefined)	inactive: 67.7%
COc1cc2c(OC(C)=O)c3c(c(-c4ccc5c(c4)OCO5)c2cc1OC)C(=O)OC3	inactive: 113%
C/C(=N\NC(=O)c1nn(C)cc1Br)c1cccc(NC(=O)C2CCCC2)c1	inconclusive: -61.1%
Cc1ncoc1C(=O)N1CCc2c([nH]c3ccccc23)C1C1CCCCC1 (centres undefined)	inconclusive: -46.4%
O=C1CCCC/C1=N\Nc1ccc(OCc2ccccc2)cc1	inconclusive: -54.4%
CN(C)c1ccc2c3c(ccc(N(C)C)c13)C(=O)OC2	inconclusive: -33.4%
Cc1cc(Nc2nc3ccccc3nc2Cl)n(-c2ccccc2C)n1	inconclusive: -44.5%
COc1cc2c(cc1OC)CN(C(=O)/C=C/c1ccccc1[N+](=O)[O-])CC2	inconclusive: -52.4%
Nc1ccn([C@@H]2O[C@H](CO)[C@@H](O)C2O)c(=O)n1 (some centres undefined)	inactive: 72.3%
c1ccc2nc(-c3nc4ccccc4[nH]3)ccc2c1	inactive: 74.4%
CCOC(=O)c1ccc(NC(=O)c2cccc(S(=O)(=O)N3c4ccccc4CC3C)c2)s1 (centres undefined)	inactive: 83.1%
Oc1ccc(COCc2ccccc2)c2cccnc12	inactive: 51%
COc1ccc(Oc2c(C)oc3cc(OC(=O)N4CCOCC4)ccc3c2=O)cc1	inactive: 56.2%
COc1ccc2nc(NC(=O)CCn3cccc3)sc2c1	inconclusive: -41.2%
CCc1ccc(N2CCN(C(=O)N3CCOCC3)CC2)cc1	inconclusive: -54.7%
COc1ccccc1NC(=O)c1c(Nc2ccccc2F)sc(C(=O)Nc2cccc(Cl)c2)c1N	inconclusive: -61.1%
CC1CCCCN1C(=O)CSc1nc(-c2ccccc2)cn1N (centres undefined)	inconclusive: -52.8%

Structure (SMILES)	activity score
CC1(C)Cc2ccccc2-c2nnc(SCc3ccccc3)n21	inconclusive: -60.5%
Cc1ccc(Nc2nc3c([nH]2)c(=O)n(C)c(=O)n3C)cc1	inconclusive: -57.9%
CCOc1ccc(OCc2cccc(C(=O)N(CC)CC)c2)cc1	inactive: 50.8%
CC(=O)N1CCN(c2ccccc2NC(=O)c2ccc3ccccc3c2)CC1	inconclusive: -48.1%
Nc1ccccc1N=Nc1ccccc1N	active: -222%
O=C(CSc1ccsc1[N+](=O)[O-])Nc1cccc(F)c1	inconclusive: -54.1%
COc1ccc(-n2c(C)cc(C(=O)CCl)c2C)cc1	inactive: 65.4%
O=C(NC(=S)Nc1cc(-c2nc3ccccc3[nH]2)ccc1Cl)c1ccc2c(c1)OCO2	inconclusive: -48.6%
Cc1ccc(C)c(N2CCN(c3cnn(-c4nc5ccccc5s4)c(=O)c3Cl)CC2)c1	inconclusive: -61.2%
COc1ccccc1NC(=O)C1=C(C)Nc2nc3ccccc3n2C1c1cccs1 (centres undefined)	inactive: 106%
COc1ccc(/C=C/C(=O)Nc2ccc(-n3nncc3-c3ccc(OC)c(OC)c3)cc2)cc1OC	inactive: 59%
CCNC(=O)c1sc2cc(C)ccc2c1Cl	inconclusive: -55.2%
CC1CC(=O)NN=C1c1ccc(NCCO)c([N+](=O)[O-])c1 (centres undefined)	inactive: 76.1%
Cn1c(=O)n(C)c2cc(S(=O)(=O)Nc3cc(Cl)ccc3O)ccc21	active: -71.5%
NNc1nc2c(Cl)c(Cl)ccc2s1	inconclusive: -49.9%
COc1ccccc1C(=O)NNC(=O)c1ccc(C)cc1	inconclusive: -56.8%
CCc1ccc(C(=O)CN2CCSC2=N)cc1	active: -109%
O=C(Cc1ccccc1)NC(=S)Nc1ccc2oc(-c3ccccc3)nc2c1	active: -106%
COc1ccccc1CNc1nc(C)c(C(C)=O)s1	inconclusive: -58.3%
O=C(Nc1ccc(Br)cc1)c1csc(-c2ccncc2)n1	inconclusive: -57.8%

Structure (SMILES)	activity score
COc1ccc(OC)c(S(=O)(=O)N2CCCCC2C(=O)N2CCN(c3ccccn3)CC2)c1 (centres undefined)	inconclusive: -49.3%
CCc1c(C)c2c(C)nn(-c3ccccc3)c2[nH]c1=O	inconclusive: -60.8%
CC(=O)Cn1nnc2sc3c(c2c1=O)CCC(C(C)(C)C)C3 (centres undefined)	active: -113%
CC(C)(C)C(=O)NC(=S)NNC(=O)c1sc2ccccc2c1Cl	inactive: 88.6%
Cc1ccc(NC(=O)c2cnccn2)cc1	active: -81.8%
CC(=Nc1ccc(C)cc1)c1sc2ccccc2c1O	inconclusive: -54%
O=C1C=C(N2CCCCC2)c2ccccc2C1=O	inactive: 122%
Cc1ccc(C2=NN(C(=O)CNCCO)C(c3cccs3)C2)cc1 (centres undefined)	inconclusive: -47.4%
Cc1ccc(C(=O)Nc2ccc(S(=O)(=O)Nc3cnc4ccccc4n3)cc2)cc1	inconclusive: -61%
COc1ccc(C(=O)C2CCCN(Cc3c[nH]c4ccccc34)C2)c(OC)c1 (centres undefined)	inconclusive: -40.1%
NC(=O)CSc1cn(CCNC(=O)c2cccs2)c2ccccc12	inconclusive: -43.7%
O=C(N/N=C/c1ccncc1)c1cccc(N/N=C/c2ccncc2)c1	inconclusive: -45.3%
CC1CN(c2ccc([N+](=O)[O-])c(NCCOc3ccc(Cl)cc3)c2)CC(C)N1 (centres undefined)	inactive: 104%
Cc1ccc(-c2nnn(CC(=O)N(c3ccc4c(c3)OCCO4)C(C(=O)NCC3CCCO3)c3ccc(F)cc3)n2)o1 (centres undefined)	inconclusive: -54.2%
CCN(CC)C(=O)CCCc1c[nH]c2ccccc12	inconclusive: -35%
COC(=O)C1=C(NC(=O)c2cccc(OC)c2)CCS1	inconclusive: -53.4%
CCCCC(=O)Nc1ncc(Br)s1	inconclusive: -45.3%
Cc1ccc(C)c(OCC(=O)Nc2ccc(S(=O)(=O)Nc3ccccn3)cc2)c1C	inconclusive: -16.5%
Cc1ccc(C(=O)COC(=O)c2ccc(Br)o2)cc1C	inconclusive: -60%
